Measured values as given in PubChem BioAssay AID1508623 (National Center for Advancing Translational Sciences (NCATS), 2021).
In all, about 48,000 compounds went through this assay and about 450 (0.94%) were called active. Another 19% or so got no clear call; they are omitted. Calls come from the whole dose curve; as a rule, active = well fitted inhibition curve with a large enough effect; inconclusive = small, poorly fitted or top-dose-only effect; inactive = no such curve, though single readings can be large or run the other way. The list shows a part of the results.

Experiment: Primary qHTS for Identification of Small Molecule Inhibitors of Huntingtin Promoter Activity; note: nearly all actives have a fitted effect of over 50% in size
Details: HEK293 HTT promoter firefly luciferase reporter (activity 0% = vehicle and -100% = no light), 24 h; series mostly up to 57.5 µM; activity change, negative = inhibition: at the top concentration
Procedure, shortened: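 HEK293 luciferase promoter-reporter cells (2,500/well) plated 24 h, then compounds added at up to 57.5 uM final for 24 h at 37 °C. Firefly luminescence by Dual-Glo, normalized to vehicle (0%) and zero RLU (-100%).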

Activity change, negative = inhibition, inactive:
CCOC(=O)c1c(NC(=O)/C=C/c2ccc(OCC)cc2)sc(C)c1C -8.52%
COC(=O)C(NC(=O)CC(C)C)(Nc1nc2c(s1)CCCC2)C(F)(F)F (centres undefined) -17.2%
CCc1cnc2c(c1SCC(=O)N1CCCCC1)c(=O)n(C)c(=O)n2C -10.3%
CCCCOc1ccc(C(=O)NCCS(=O)(=O)N2CCN(c3ccc(F)cc3)CC2)cc1 -15.3%
CCOc1ccc(CNCc2c(C(=O)O)n(Cc3ccccc3F)c3cc(OC)ccc23)cc1 -20.1%
COc1ccc(C(=O)NC2(C(F)(F)F)C(=O)NC(C)=C2C#N)cc1OC (centres undefined) -2.27%
CCC(=O)N1CCc2cc(Br)cc(S(=O)(=O)N3CCC(C(=O)Nc4ccc(OC)cc4)CC3)c21 -19.5%
O=C(CSc1nc2ccccc2nc1Cc1ccccc1)NCc1ccccc1Cl 10.1%
CCc1ccc(NC(=O)c2ccc3c(O)c(S(=O)(=O)c4ccc(Cl)cc4)c(=O)[nH]c3c2)cc1 8.37%
Cc1cccc(OC(C)C(=O)Nc2ncn[nH]2)c1 (centres undefined) -13.7%
CCCCN(CC)CCCNC(=O)c1sc2nc(C)cc(C)c2c1-n1cccc1 -1.28%
COc1ccc(CN(C(=O)COc2ccccc2OC)C2CCS(=O)(=O)C2)cc1 (centres undefined) -0.516%
Cc1ccc(C)c(NC(=O)CN2C(=O)CCc3ccccc32)c1 -58.3%
CCN(CC)c1cc(C)c2cc(NC(=O)c3cccc(OC)c3)ccc2n1 -11.5%
Cc1ccc(NC(=O)CN(C)S(=O)(=O)c2ccc3c(c2)n(C)c(=O)c(=O)n3C)cc1C -16.8%
Cc1ccc(-c2nc3c4ccccc4n(CC(=O)N4CCN(c5ccccc5F)CC4)c(=O)n3n2)cc1 2.87%
Cc1ccccc1CNC(=O)c1cnc2sc(N3CCOCC3)nn2c1=O 2.94%
Cc1ccc(-n2nnnc2CNC(=O)C(C)(C)C)cc1C 5.9%
Cc1nc(SC(C)C(=O)Nc2ccccc2C)cc(-c2ccccc2)n1 (centres undefined) -14.2%
Cc1ccccc1C(=O)c1cccn1CC(=O)NCc1ccccc1 18.6%
CCOc1ccc(CCNC(=O)Cn2nc(C)n3c(cc4occc43)c2=O)cc1OCC -7.44%
CCn1c2ccccc2c2nnc(SCC(=O)O)nc21 -4.11%
CCOC(=O)c1ccccc1O -3.15%
COc1ccc(CNC(=O)CSc2nc(-c3ccc(OC)cc3)cc(C(F)(F)F)n2)cc1 -10.5%
CC(C)Oc1ccc(CNC(=O)c2cc3ccccn3n2)cc1 25.9%
Cc1ccc(CCNC(=O)CCCn2nc(C)c3c(C)n(-c4ccccc4)nc3c2=O)cc1 11.8%
COc1cccc(-c2cc(C(=O)Nc3cc(Cl)ccc3O)on2)c1 31.9%
COc1cc(OC)c(NC(=O)C2CCCN(c3ncnc4c3nc3n4CCCCC3)C2)cc1Cl (centres undefined) -17.9% [at 11.5 µM]
Cc1c(NC(=O)c2cccnc2)c(=O)n(-c2ccccc2)n1C 6.3%
O=C(NCCc1ccccc1)c1cnc2sc(N3CCCC3)nn2c1=O -26.3%
CCCc1nn2c(=O)cc(COC(=O)c3cccc(NC(=O)COc4ccccc4C)c3)nc2s1 23%
CC(=O)c1c(C)nc2nc(-c3ccccc3)nn2c1C 39.3%
CCCCOc1ccc(C(=O)N2CCN(CCc3ccncc3)CC2)cc1 2.94%
COc1ccccc1N1CCN(C(=O)c2nn(-c3ccc(C)cc3)c(=O)n(C)c2=O)CC1 -24.4%
CCOC(=O)c1ccc(Nc2c(-c3ccc(O)c(OC)c3)nc3nc[nH]n23)cc1 -2.02%
Cc1cc(F)ccc1S(=O)(=O)NCC(c1ccco1)S(=O)(=O)c1cccs1 (centres undefined) -16.5%
Cc1cc2nnc(SCC(=O)Nc3ccc(F)c(Cl)c3)n2c2ccccc12 8.66%
CCc1nn2c(=O)cc(COC(=O)c3cccc(NC(=O)c4ccccc4Cl)c3)nc2s1 3.63%
CS(=O)(=O)OCCCCOS(C)(=O)=O
CCc1ccc2c(c1)c(=O)c(S(=O)(=O)c1ccc(F)cc1)cn2CC(=O)Nc1ccc(C)cc1C -31.3%
Cc1ccc(CNC(=O)C2CCCN(S(=O)(=O)c3cccc4nsnc34)C2)cc1 (centres undefined) 5.83%
CCCn1ccc2c(OCC(=O)NCc3ccc(C)cc3)cccc2c1=O 0%
Cc1cccc(NC(=O)c2ccc(N(Cc3ccccc3)S(C)(=O)=O)cc2)c1 49.9%
CCN(CCCNC(=O)c1cc2c(=O)n(C)c3ccccc3c2s1)Cc1ccccc1 21.7%
COc1ccc(CNC(=O)c2cnc3sc(N4CCCC4)nn3c2=O)cc1OC -21.1%
Cc1cc2ncn(CCCCOc3ccccc3)c2cc1C 0.12%
COc1cc(-c2nnn(CC(=O)Nc3ccc(OC(F)(F)F)cc3)n2)cc(OC)c1OC -11.6%
CCOC(=O)c1c(C)[nH]c(CCC(=O)Nc2cc(C)ccc2OC)c1C -29.2%
CC1CCC(NC(=O)c2ccc3c(c2)N(Cc2ccccc2)C(=O)c2ccccc2S3=O)CC1 (centres undefined) -11.1%
CCOC(=O)c1cccc(NC(=O)CN2C(=O)c3ccccc3Sc3ncccc32)c1 -2.4%
Cc1ccc(C(=O)NCc2ccc(N(C)C)cc2)cc1NC(=O)c1nsc2ccccc12 -18.2%
CN1C(C(=O)Nc2ccc(F)cc2F)=CC(c2ccco2)=NS1(=O)=O -7.01%
O=C(CSCc1ccccc1Cl)N1CCN(c2ccc(F)cc2)CC1 -7.73%
Cc1nnc(NCc2ccccc2)c2c1nnn2Cc1ccccc1Cl -7.86%
Cc1cc2oc(C(=O)Nc3c(C(=O)Nc4ccccc4)oc4ccccc34)cc(=O)c2cc1C -21.1%
Cc1cccc(C)c1NC(=O)c1oc2ccc3c(c2c1C)C(=O)CC(C)(C)O3 -14.4%
Cc1cccn2c(=O)c(C(=O)NCCCN3CCCCC3C)c(O)nc12 (centres undefined) -13.8%
O=C(Cn1ncc2c1-c1ccccc1OC2)N1CCN(c2ccccc2F)CC1 -27.3%
COc1ccccc1CNC(=O)C1CCCN(S(=O)(=O)c2ccc3c(c2)CCCN3C(C)=O)C1 (centres undefined) -9.13%
CC(=O)NCc1c(I)c(NC(C)=O)c(I)c(C(=O)O)c1I 13%
N#CCNC(=O)c1ccc(-c2ccnc(Nc3ccc(N4CCOCC4)cc3)n2)cc1 2.56%
COc1ccc(N2CCN(C(=O)c3cn(CC(C)C)c(=O)c4c3c3ccccc3n4C)CC2)cc1 -18.7%
CCc1ccc(-c2nn(CC(=O)Nc3ccccc3)c3c2cnc2ccc(F)cc23)cc1 61.5%
CC(C)(C)C1CCc2c(sc(NC(=O)Cn3nnc(-c4ccccc4F)n3)c2C#N)C1 (centres undefined) -4.6%
